Experimental data reported in PMC4336329 (PLoS ONE, 2015).
In all, about 310,000 compounds went through this assay and about 14,000 (4.5%) showed an effect of 50% or more. Effects have a minus sign here. This is one part of the list.

target: human ether-à-go-go-related gene (hERG) potassium channel (human, UniProt Q12809); experiment: primary screen, population patch clamp on CHO cells stably expressing hERG
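Note: peak tail current of the secondary pulse compared with the same well before compound.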

Sequence of human ether-à-go-go-related gene (hERG) potassium channel (Q12809 whole entry, looked up): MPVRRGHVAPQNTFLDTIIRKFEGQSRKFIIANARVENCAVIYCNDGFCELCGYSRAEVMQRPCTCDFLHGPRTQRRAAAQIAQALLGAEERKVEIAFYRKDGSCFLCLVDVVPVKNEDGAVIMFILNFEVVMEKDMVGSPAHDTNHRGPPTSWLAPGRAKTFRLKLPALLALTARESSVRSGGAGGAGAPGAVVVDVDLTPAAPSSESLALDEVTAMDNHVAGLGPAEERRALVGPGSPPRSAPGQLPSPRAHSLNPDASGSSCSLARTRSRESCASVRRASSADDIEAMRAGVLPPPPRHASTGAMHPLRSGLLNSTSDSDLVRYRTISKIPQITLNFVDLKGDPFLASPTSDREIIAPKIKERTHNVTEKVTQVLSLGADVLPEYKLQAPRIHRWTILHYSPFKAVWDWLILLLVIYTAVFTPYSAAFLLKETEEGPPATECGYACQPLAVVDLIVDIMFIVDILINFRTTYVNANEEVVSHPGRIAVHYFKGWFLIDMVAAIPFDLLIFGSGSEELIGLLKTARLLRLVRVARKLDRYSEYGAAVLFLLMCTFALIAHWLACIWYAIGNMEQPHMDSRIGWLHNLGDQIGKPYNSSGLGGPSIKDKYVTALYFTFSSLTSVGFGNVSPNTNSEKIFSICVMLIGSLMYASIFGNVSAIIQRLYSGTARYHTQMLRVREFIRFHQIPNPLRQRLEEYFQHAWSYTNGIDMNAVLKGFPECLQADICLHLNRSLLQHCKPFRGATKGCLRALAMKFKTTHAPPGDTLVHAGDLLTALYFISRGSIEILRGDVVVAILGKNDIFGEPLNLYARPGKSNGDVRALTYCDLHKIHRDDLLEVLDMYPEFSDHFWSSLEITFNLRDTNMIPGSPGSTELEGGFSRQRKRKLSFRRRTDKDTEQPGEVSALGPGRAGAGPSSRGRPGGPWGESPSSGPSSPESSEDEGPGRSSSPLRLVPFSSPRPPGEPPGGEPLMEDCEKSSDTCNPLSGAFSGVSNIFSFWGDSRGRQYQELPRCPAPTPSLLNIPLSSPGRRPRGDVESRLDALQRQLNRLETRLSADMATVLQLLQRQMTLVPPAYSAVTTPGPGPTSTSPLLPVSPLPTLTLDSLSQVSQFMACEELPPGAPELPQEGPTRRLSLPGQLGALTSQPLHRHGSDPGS

Compound	hERG current change (%, negative = inhibition) at 10uM [%]
Cc1ccc2c(c1)C(c1ccccc1)N(C(=O)CC(C)C)CC(=O)N2 (centres unmarked)	-28.5
CC1(C)Nc2ccccc2C(=O)N1NS(=O)(=O)c1ccccc1	14.5
CCC(=O)c1ccc(OCc2ccc(C(=O)OC)o2)c(OC)c1	-23.7
CC(C)CCN1CCN(CCCc2ccccc2)CC1CCO (centres unmarked)	-46.6
CC(C(=O)NC1CCCC1)N(C(=O)c1ccc(-c2ccccc2)[nH]1)c1ccccc1F (centres unmarked)	-20.1
CCC(=O)Nc1ccc(C(=O)CSc2nnc(-c3ccccc3F)n2CCc2ccccc2)cc1	3.06
CCN(CC)CCn1c(NCc2cccc(OC)c2)nc2ccccc21.Cl	-57.8
CC(=NCc1ccco1)c1c(O)n(-c2ccc(C)cc2)c(=O)[nH]c1=O	2.94
O=C(C1CC1)N1N=C(c2ccncc2)CC1(O)C(F)(F)F (centres unmarked)	21.8
Cc1nc(C)c(C(=O)C2=C(O)C(=O)N(CCN3CCOCC3)C2c2cccnc2)s1 (centres unmarked)	6.22
O=C(C1CC1)N1CCc2cc(Br)cc(S(=O)(=O)N3CCCCCC3)c21	-16.5
CNC(=O)N1CCC(C(=O)c2c(C)c(C)c(C)c(C)c2C)CC1	-4.56
CN1C(=O)Cc2cc(S(=O)(=O)NCCc3ccccc3)ccc21	-8.58
C=CCSc1nnc2c(n1)[nH]c1c(C)cccc12	-9.69
CCCc1nc2nc(C)c(NS(=O)(=O)c3ccc(F)cc3)c(=O)n2[nH]1	18.3
CC1CCN(CC(O)COC2CCC(C(C)(C)C)CC2)CC1.Cl (centres unmarked)	-46.2
CCCCC(=O)N=c1sc2cc([N+](=O)[O-])ccc2n1C	-10.4
CC(=O)N1N=C(c2ccccc2)CC1c1cn(C)c2ccccc12 (centres unmarked)	-13.2
CCOc1ccccc1N(C)C(=O)c1cn(C)c(=O)c2ccccc12	22.2
COc1cc(S(=O)(=O)Nc2ccc(C)cc2)ccc1N=Cc1c(C)c(C#N)c(=O)n(C)c1O	12.9
O=C(C1=C[C@@H](C2CC2)C[C@@H](OCCCCO)O1)N1CCN(Cc2ccc3c(c2)OCO3)CC1	-11.1
CC(C)(C)C(=O)NCCCNc1ccc([N+](=O)[O-])cc1	-24.7

Compound	hERG current change (%, negative = inhibition) at 10uM [%]
CSCCC(NC(=O)/C(=C/c1ccc2c(c1)OCO2)NC(=O)c1cccc([N+](=O)[O-])c1)C(=O)O (centres unmarked)	1.16
CCOCCOC(=O)c1cccc2c1-c1ccccc1C2=O	-2.53
Cn1c(O)c(C=Nc2ccccc2Sc2ccccc2)c(=O)n(C)c1=O	16.4
CCOC(=O)C(C)n1cnc2c(nnn2-c2ccc(OC)cc2)c1=O (centres unmarked)	-13.2
O=C(Cc1c(C(=O)O)[nH]c2ccc(Cl)cc12)Nc1ccc2c(c1)OCCO2	1.71
CC(=O)Nc1ccc(N(C(=O)Cn2nnc3ccccc32)C(C(=O)NC2CCCC2)c2ccc(O)c(O)c2)cc1 (centres unmarked)	21.1
COC(=O)CSc1nc2c(c(-c3ccc(O)cc3)c1C#N)CCCC2	16.3
Cc1ccccc1NC(=O)CSc1nnc(NC(=O)c2ccco2)s1	1.36
Cc1c(C(=O)OC/C(O)=C(\C#N)c2nc3ccccc3[nH]2)oc2ccc(Br)cc12	10.1
Clc1ccc(OCCCNCc2ccccc2)c2ccccc12.O=C(O)C(=O)O	-1.92
COc1ccc(C(=O)N2CCN(Cc3ccccn3)CC2)cc1.O=C(O)C(=O)O	-5.82
N#Cc1ccc(OCC(=O)NCCc2ccc(S(N)(=O)=O)cc2)cc1	-2.1
CC1(C(=O)N(CC(=O)NC2CCCC2)Cc2ccco2)CC(=O)N=C2C=CC=CN21 (centres unmarked)	5.74
COc1ccc(NS(=O)(=O)c2ccc(NC(=S)NC(=O)c3cccc(F)c3)cc2)nn1	15.9
Cc1ccccc1-n1c(SC(C)C(N)=O)nnc1-c1cccnc1 (centres unmarked)	-6.92
Cc1ccc(N(C)C(=O)CCS(=O)(=O)c2cc3c(cc2Cl)NC(=O)CO3)cc1	-20.3
O=C(CCN1CCN(S(=O)(=O)c2ccc(F)cc2)CC1)Nc1ccccc1F	-8.34
O=Cc1cn(Cc2ccccc2)nc1-c1cccnc1	7.48
Cc1ccc(N/C(N)=N/c2nc(C)cc(N3CCCCC3)n2)c(C)c1	-83
CCN1CCN(c2ncnc3c2nnn3Cc2ccccc2)CC1	-19.3
CCOc1cc(CNCc2ccccc2)ccc1OCC(=O)NC1CCCCC1	-25.6
CC(C)(C)OC(=O)NC1CNNC1=O (centres unmarked)	12.9

Compound	hERG current change (%, negative = inhibition) at 10uM [%]
CC(=O)c1sc2nc(-c3ccccc3)cc(C)c2c1N	19.8
COc1ccc(Oc2nc(C)nc3c2oc2ccccc23)cc1	13.8
Cc1cc(C(=O)Nc2cc(Br)ccc2O)on1	24
Cc1nnc(SCC(=O)Nc2ccc(S(=O)(=O)Nc3ccc(Cl)nn3)cc2)s1	15.6
CN(C)S(=O)(=O)c1ccc(NC(=O)CN2C(=O)NC(Cc3ccccc3)C2=O)cc1 (centres unmarked)	10.2
CCN(c1ccccc1)S(=O)(=O)c1ccc(C(=O)Nc2ccc(C)cn2)cc1	-15.4
CCCN(CCC)C(=O)c1cn(CC)c2ccc(S(=O)(=O)N3CCCCC3)cc2c1=O	-10.5
Cc1ccc(C2=NN(CC(=O)NCCC(C)C)C(=O)CC2)cc1	4.58
COc1ccc(S(=O)(=O)C(C#N)c2nc3ccccc3nc2N2CCC(C)CC2)cc1 (centres unmarked)	18.6
COc1cccc(CN2CCNC(=O)C2CC(=O)NCCc2nc(C)c(C)s2)c1OC (centres unmarked)	17.9
CN(C)c1ccc(/C=N/Nc2ccc(-n3ccnc3)nn2)cc1	-1.01
c1ccc(C2COC(c3cccs3)=N2)cc1 (centres unmarked)	-1.21
Cc1ccc(NC(=O)c2ccc(CSc3nnc(C)s3)cc2)c(C)c1	8.94
COc1cc(/C=C/CN2CCC(CO)(CC3CCCCO3)CC2)ccc1O (centres unmarked)	-19.1
Cc1ccc(C(=O)Nc2ccc(C(=O)O)cc2)cc1S(=O)(=O)Nc1cccc([N+](=O)[O-])c1	14.4
O=C(Nc1ccccc1C(=O)Nc1ccccc1C(=O)O)c1ccccc1	20.5
CCCSc1nc2[nH]ncc2c(=O)[nH]1	2.49
Cl.N[C@@H](Cc1c[nH]c2ccccc12)c1nnc(SCc2ccc(Cl)cc2)o1	-20.8
C=C(Br)Cn1c(CC)nc2ccccc21	14.1
COC(=O)NC(=S)Nc1ccc(Oc2ccc(Cl)cc2Cl)c(Cl)c1	22.6
NC(=O)c1c(NC(=O)Cn2nc(C(=O)O)c3ccccc3c2=O)sc2c1CCC2	22.7
Cc1ccc(NC(=S)Nc2cc(C)on2)cc1	6.71

Compound	hERG current change (%, negative = inhibition) at 10uM [%]
Cc1ccc(C(=O)NN(CCC(=O)NC(C)(C)C)C2=NS(=O)(=O)c3ccccc32)cc1	-4.88
Cc1cc(C)cc(NC(=O)COC(=O)CCCNC(=O)c2ccc(Cl)cc2)c1	-40.7
O=C(/C=C/c1c(Cl)nc2ccccn12)Nc1ccc(F)cc1	15.3
Cc1ccccc1C(=O)Nc1ccccc1C(=O)NCC(C)C	-5.58
CCOC(=O)c1cnc(-c2ccccc2)nc1Oc1cccc(Cl)c1	11.6
CC(=O)c1c(N2CCN(C)CC2)nc(=S)n(Cc2ccccc2)c1C	-3.14
COc1cc2c(cc1OC)n(CC(=O)NC1CCCCCC1)n1c(C)cc(=O)nc21	-1.25
COc1cccc(/C=N/NC(=O)CSc2cccc3cccnc23)c1	-12.6
Cc1nn(-c2ccccc2)c(N)c1C(O)(CSc1nccn1C)C(F)(F)F (centres unmarked)	12.8
CCCCc1ccc(NC(=O)N2CCNC(=O)C2CC(=O)Nc2ccsc2C(=O)OC)cc1 (centres unmarked)	8.51
O=S(=O)(Cc1ccccc1Cl)CC(O)COc1ccccc1Cl (centres unmarked)	-12.6
CC1(CCC(=O)N2CCCC(N3CCN(c4cccc(C(F)(F)F)c4)CC3)C2)CC1 (centres unmarked)	-61.5
COc1ccccc1OCCCOc1ccc(C)cc1Br	7.23
COc1ccc(N2CCN(C(=O)C3CCC(Cn4c(=S)[nH]c5ccccc5c4=O)CC3)CC2)cc1 (centres unmarked)	-9.65
O=C1CC2(CCN(C(=O)c3cccc(Cl)c3)CC2)Oc2ccccc21	-78.5
CS(=O)(=O)n1nc(-c2cccnc2)nc1NCc1ccccc1	43.9
N#CCc1nn2c3c(cnc2c1C#N)C(=O)CCC3	-3.06
CC1(C)CCCN(C(=O)c2ccc3c(c2NCCO)C(=O)c2ccccc2C3=O)C1	-19.9
CCNC(=S)N1CCN(CCN=CC2=C(O)CC(c3cccs3)CC2=O)CC1 (centres unmarked)	-40.6
COc1ccc(NC(=O)C2CCN(C(=O)[C@@H]3Cc4ccccc4CN3)CC2)cc1	-38.2
